Data on 88 compounds can be found in PMC4336329 (PLoS ONE, 2015).

The whole screen tested about 310,000 compounds, of which about 14,000 (4.5%) showed an effect of 50% or more. The effect is printed as a negative number. This is one part of the list.
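Note: peak tail current of the secondary pulse compared with the same well before compound.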

The target in this assay is human ether-à-go-go-related gene (hERG) potassium channel (human, UniProt Q12809). Put plainly: primary screen, population patch clamp on CHO cells stably expressing hERG.
Chain of human ether-à-go-go-related gene (hERG) potassium channel (Q12809 whole entry, looked up): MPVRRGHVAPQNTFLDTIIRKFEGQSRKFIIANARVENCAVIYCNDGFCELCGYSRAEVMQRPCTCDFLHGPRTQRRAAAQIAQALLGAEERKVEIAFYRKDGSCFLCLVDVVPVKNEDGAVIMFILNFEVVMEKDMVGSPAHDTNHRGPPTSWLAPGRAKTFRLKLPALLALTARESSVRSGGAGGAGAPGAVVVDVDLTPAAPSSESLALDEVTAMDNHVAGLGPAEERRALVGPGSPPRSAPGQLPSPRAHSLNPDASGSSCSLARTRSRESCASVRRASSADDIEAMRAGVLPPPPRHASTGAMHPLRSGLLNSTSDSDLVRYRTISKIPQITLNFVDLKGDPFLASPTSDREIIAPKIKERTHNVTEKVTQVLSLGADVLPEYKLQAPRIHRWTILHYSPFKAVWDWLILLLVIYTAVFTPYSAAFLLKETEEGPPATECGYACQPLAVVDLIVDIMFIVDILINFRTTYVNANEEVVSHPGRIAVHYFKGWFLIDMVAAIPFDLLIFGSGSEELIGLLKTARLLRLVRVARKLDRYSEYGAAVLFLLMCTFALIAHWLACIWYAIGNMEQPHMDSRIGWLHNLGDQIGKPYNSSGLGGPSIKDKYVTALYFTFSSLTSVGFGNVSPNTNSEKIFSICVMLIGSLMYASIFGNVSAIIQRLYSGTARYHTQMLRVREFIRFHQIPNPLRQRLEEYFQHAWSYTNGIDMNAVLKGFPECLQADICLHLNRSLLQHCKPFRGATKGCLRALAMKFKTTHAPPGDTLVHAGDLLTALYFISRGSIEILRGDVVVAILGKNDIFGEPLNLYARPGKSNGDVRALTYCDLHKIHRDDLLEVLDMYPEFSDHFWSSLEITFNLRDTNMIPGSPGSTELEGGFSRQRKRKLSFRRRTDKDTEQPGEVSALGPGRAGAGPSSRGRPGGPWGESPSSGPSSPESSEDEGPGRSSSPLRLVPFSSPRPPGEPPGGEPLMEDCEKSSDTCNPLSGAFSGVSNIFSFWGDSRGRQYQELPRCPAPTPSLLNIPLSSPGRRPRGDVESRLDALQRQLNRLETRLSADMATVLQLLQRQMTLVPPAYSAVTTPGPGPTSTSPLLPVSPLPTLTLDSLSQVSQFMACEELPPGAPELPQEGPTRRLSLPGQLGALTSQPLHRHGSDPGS
As for `O=C(Nc1ccccn1)c1cc(-c2cccnc2)nc2ccc(Br)cc12`, the “hERG current change (%, negative = inhibition) at 10uM” value came out at 14.2%. Consider `C/C(=N/NC(=O)CCc1c(C)n[nH]c1C)c1cccc([N+](=O)[O-])c1`, for which the “hERG current change (%, negative = inhibition) at 10uM” value was determined as 2.87%. For `CCCCCc1c(C)c(C#N)c2nc3ccccc3n2c1-n1ccnc1C` the value was -21.2%. The same measure for `O=C(CCCCCBr)N1CCC(CC2CC(c3ccc(Cl)cc3)=NO2)(C(=O)NCC2CCCCC2)CC1` (stereo not shown): -74.6%; for `CCC(C)N(C)C1CCN(C(=S)Nc2cccc(SC)c2)CC1` (stereo not shown): -45.8%. For `CCn1c(SCC(=O)N(C)Cc2ccc(OC)c(F)c2)nc2cc(S(N)(=O)=O)ccc21` the value was -19%; for `O=C(Nc1nc2ccccc2[nH]1)c1cccc(Br)c1`, 2.65%. `Cc1ccccc1OCC(=O)Nc1ccccc1C(=O)NC1CC1`: the “hERG current change (%, negative = inhibition) at 10uM” value is recorded as -7.92%. `Cc1ccc(C)c(NC(=O)COC(=O)c2cccc3c2C(=O)c2ccccc2C3=O)c1`: the “hERG current change (%, negative = inhibition) at 10uM” value is -14.2%. For `CCOC(=O)C1Nc2ccc(Br)cc2C2C=CCC12` (stereo not shown), the “hERG current change (%, negative = inhibition) at 10uM” value stood at 13.6%. The same measure for `CC(C)[C@H](NC(=O)Nc1cccc(C(F)(F)F)c1)C(=O)O`: 5.82%; for `O=C1CC2(CCN(C(=O)COc3ccccc3F)CC2)Oc2ccccc21`: -49.1%; for `Cc1ccccc1NC(=O)C(=O)N/N=C/c1cccc(Br)c1`: -2.27%. The same measure for `CCOC(=O)C1Cn2c(nc3c(c2=O)C(C)(CC)Cc2ccccc2-3)S1` (stereo not shown): -0.248%. The same measure for `COc1ccc(CN2CCCC(C(=O)c3sccc3C)C2)cc1O` (stereo not shown): -71.9%; for `O=C(C[n+]1cccc(CNC(=O)c2ccc(OC(F)F)cc2)c1)Nc1ccc(F)cc1.[Cl-]`: -16.8%; for `N#Cc1c(NC(=O)c2ccccc2Cl)n(Cc2ccccc2)c2nc3ccccc3nc12`: 7.77%. Regarding `COc1cccc(-c2nc(S(=O)(=O)c3ccccc3)c(N3CCOCC3)o2)c1`, the “hERG current change (%, negative = inhibition) at 10uM” value was -38.2%.

On to `CC(C)(C)OC(=O)N1CCCC1C(=O)NCCc1ccccc1` (stereo not shown), for which the “hERG current change (%, negative = inhibition) at 10uM” value was 13.4%. For `COc1cccc(CNC(=O)COC(=O)c2c(C)nn(-c3ccccc3)c2Cl)c1` the value was -9.35%. For `COCCNC(=S)N(c1ccccc1)C(C)C` the value was -4.64%; for `CCCCNC(C(=O)Nc1ccc([N+](=O)[O-])cc1Br)c1ccccc1` (stereo not shown), 5.72%; for `CCOC(=O)N1CCN(C(=O)C2CCCN(S(=O)(=O)c3ccc(F)cc3)C2)CC1` (stereo not shown), -10.1%. The same measure for `COCCOc1ccc(C(F)(F)F)cc1NC(=O)COC(=O)c1c(C)noc1C`: -5.64%; for `Cc1ccc(CNC(=O)C(=O)NCCC2CCCCN2S(=O)(=O)c2ccccc2)cc1` (stereo not shown): -26.6%.

`CC(=O)Cc1ccccc1OC(=O)c1ccco1`: the “hERG current change (%, negative = inhibition) at 10uM” value is listed as 23.6%. The same measure for `COc1cccc(CSc2nc3ccncc3[nH]2)c1`: -10.4%; for `CC(C)C(NC(=O)c1ccco1)C(=O)NCc1ccc(C(=O)O)cc1` (stereo not shown): 22.8%.

`O=C1C=C(NNC(=O)c2cccnc2)CC(c2ccco2)C1` (stereo not shown): the “hERG current change (%, negative = inhibition) at 10uM” value is recorded as 10.8%. For `CCc1ccc(NC(=O)CSc2nnc(CNC(=O)c3ccc(OC)cc3)o2)cc1`, the “hERG current change (%, negative = inhibition) at 10uM” value is given as -9.12%. For `CCOC(=O)C1=C(COC(=O)/C=C/c2ccccc2Cl)NC(=O)NC1C` (stereo not shown) the value was -0.794%; for `CCOc1ccccc1CNC(=O)CCc1cn(CC)c2ccccc12`, -31.9%; for `O=C(Cc1ccccc1)N/N=C/c1ccccc1OCc1ccc(Cl)cc1`, 21.7%. The same measure for `Cc1ccc(NC2=NCC(=O)N2C2CCCC2)c(C)c1.Cl`: 0.358%; for `O=C(CCSc1nnc(-c2ccco2)o1)Nc1ccc(F)cc1`: 8.75%; for `COc1ccc(OCc2nnc(SCC(=O)Nc3ccccc3Cl)o2)cc1`: 13.7%.

Regarding `Cc1nc(Cc2nnc(SC(C)C(=O)Nc3cccc(C#N)c3)o2)cs1` (stereo not shown), the “hERG current change (%, negative = inhibition) at 10uM” value turned out to be 13.1%. The same measure for `COc1cc(C(=O)NCc2nnc(SCC(=O)N3CCCc4ccccc43)o2)cc(OC)c1OC`: -1.5%; for `CCCCn1c(=O)c(C(=O)NCCc2ccccc2)c(O)c2ccccc21`: 24.4%; for `Cc1oc(-c2ccccc2F)nc1CS(=O)(=O)CC(=O)NC(C)CCc1ccccc1` (stereo not shown): -32.2%. In the case of `Cc1ccc(OCC(=O)OC(C)CN2CCCCC2)cc1.Cl` (stereo not shown), the “hERG current change (%, negative = inhibition) at 10uM” value turned out to be 12.2%.

Consider `Cc1cc(/C=C2\SC(=O)NC2=O)c(C)n1-c1ccc(N2CCOCC2)cc1`, for which the “hERG current change (%, negative = inhibition) at 10uM” value is reported as 7.07%. As to `COc1cc(OC)cc(C(=O)NNC(=O)CNC(=O)c2ccc(Br)o2)c1`, the “hERG current change (%, negative = inhibition) at 10uM” value is on record as 1.04%. For `COc1cc(CC(=O)NCCCc2ccccc2)cc(OC)c1OC`, the “hERG current change (%, negative = inhibition) at 10uM” value is -7.1%. Turning to `Nc1nnnn1N=C1CCCCC1`, the “hERG current change (%, negative = inhibition) at 10uM” value is on record as -38.6%. On to `CCC(C)(C)n1nnnc1C(c1cc2cc3c(cc2[nH]c1=O)OCO3)N1CCCCC1` (stereo not shown), for which the “hERG current change (%, negative = inhibition) at 10uM” value is reported as -21.1%. The same measure for `Cn1c(=O)c2c3c(sc2n2c(SCc4ccccc4)nnc12)CCCC3`: -9.93%.

Regarding `Cc1ccc(NC(=O)Cc2ccc3c(c2)OCCO3)cc1S(=O)(=O)N1CCCCC1`, the “hERG current change (%, negative = inhibition) at 10uM” value was found to be 21.2%. Take `Fc1ccccc1CN1CCC(Cc2ccccc2)CC1`: the “hERG current change (%, negative = inhibition) at 10uM” value was -24.4%.

Turning to `COc1ccc(OC)c(NC(=O)c2cc(-c3cc(Cl)ccc3O)n[nH]2)c1`, the “hERG current change (%, negative = inhibition) at 10uM” value is listed as 4.33%. With `Cc1cc(NC(=O)c2ccc([N+](=O)[O-])cc2)n(C)n1`, the “hERG current change (%, negative = inhibition) at 10uM” value amounted to 21.3%. The same measure for `CN(C)S(=O)(=O)c1cccc(COC(=O)C2=COCCO2)c1`: 9.47%. The same measure for `CCCSc1nnc(NC(=O)CCc2ccccc2)s1`: 20.5%; for `Cc1ccc(N2CC(C(=O)Nc3cc(C)on3)CC2=O)c(C)c1` (stereo not shown): 10.7%; for `CC1Oc2ccccc2N(CC(=O)NC2CCCCC2)C1=O` (stereo not shown): 8.94%.

As to `COC(=O)C1(CCSC)NC(c2ccccc2F)C2C(=O)N(c3ccc4c(c3)OCCO4)C(=O)C21` (stereo not shown), the “hERG current change (%, negative = inhibition) at 10uM” value is listed as 10.1%. Turning to `Clc1ccc(Cn2ncc3c(NCc4ccccc4)ncnc32)cc1`, the “hERG current change (%, negative = inhibition) at 10uM” value is listed as -1.94%.

With `Cc1cccn2c(=O)c(C=O)c(Nc3ccc(S(N)(=O)=O)cc3)nc12`, the “hERG current change (%, negative = inhibition) at 10uM” value was -10.9%. The same measure for `CCn1cc(C(=O)NCCc2ccc(C)cc2)c(=O)c2cc(S(=O)(=O)N(C)C)ccc21`: 14.8%; for `O=C(COc1ccc(S(=O)(=O)Nc2ccc(Cl)cc2)cc1)N1CCOCC1`: -35.8%; for `C/C(=N\NC(=O)c1cc2ccccc2cc1O)c1cc2ccccc2o1`: 6.05%. Consider `CC(C)C(=O)N1CCN(c2ccc(NC(=O)c3ccco3)cc2Cl)CC1`, for which the “hERG current change (%, negative = inhibition) at 10uM” value is reported as -14.8%. The same measure for `Cc1cccc(-c2cc(C(=O)N/N=C/c3cccnc3)c3ccccc3n2)c1`: -16.2%; for `CCCCCCc1nc(C(N)=O)c2[nH]c(=O)n(-c3ccc(OCC)cc3)c2n1`: -4.25%; for `CC(C)Cc1nc(NCCN2CCOCC2)c(C#N)c2c1COC(C)(C)C2`: -3.41%.

Take `CCCCn1c(N)c(N(CCOC)C(=O)Cn2c(=O)cnc3ccccc32)c(=O)[nH]c1=O`: the “hERG current change (%, negative = inhibition) at 10uM” value is recorded as 6.9%. For `CC(=O)C1CCC2C3CCC4CC(O)CCC4(C)C3CCC12C` (stereo not shown) the value was -4.97%; for `C=CCn1cc(-c2cccc(Cl)c2)cc(C#N)c1=O`, 1.65%. The same measure for `CN1C(=O)C2(OCC(COc3ccc(Cl)cc3)O2)c2ccccc21` (stereo not shown): 8.19%. For `Cc1ccc(C23CC4CC(CC(C(=O)NC(C(=O)O)C(C)C)(C4)C2)C3)cc1` (stereo not shown) the value was 14%; for `CCCCc1nnc(NC(=O)c2ccc(-n3cncn3)c([N+](=O)[O-])c2)s1`, -19.7%. On to `O=C(Nc1ccc(C(=O)O)cc1)/C(=C/c1cccc(Br)c1)NC(=O)c1ccco1`, for which the “hERG current change (%, negative = inhibition) at 10uM” value was 0.364%.

Take `CC1c2c([nH]c3ccccc23)CCC1C(=O)O` (stereo not shown): the “hERG current change (%, negative = inhibition) at 10uM” value is 22.4%. For `CC1CC(C)CN(CC(=O)Nc2ccc(S(N)(=O)=O)cc2)C1` (stereo not shown) the value was 13.7%. For `C=CCn1c(=O)/c(=C/c2cc(OC)c(OC)c(OC)c2)s/c1=C(/C#N)c1nc2ccccc2n1C` the value was 5.06%; for `O=C(O)c1ccc(N/N=C/c2cccc3nccnc23)cc1`, 21.4%; for `Cc1ccc(S(=O)(=O)NCCC(=O)N(C)Cc2cccs2)cc1`, -14.2%. As for `CCOC(=O)N1CCN(Cc2nc3cc(NC(=O)c4ccco4)ccc3n2C)CC1`, the “hERG current change (%, negative = inhibition) at 10uM” value is recorded as -26.5%. For `C=CCn1c(-c2ccc(C)cc2)nc2ccccc21` the value was -34.4%; for `CCCN(CC(=O)Nc1ccccc1C)C(=O)CCNC(=O)c1ccccc1Cl`, -2.92%; for `O=S(=O)(c1ccc(F)cc1)N1CCN=C1SCc1cccnc1`, -27.6%.

With `COc1ccc(N2CCN(C(=S)Nc3cccc(C)c3)CC2)cc1`, the “hERG current change (%, negative = inhibition) at 10uM” value was 8.15%. `COc1ccc(CCNCC2CCCO2)cc1.Cl` (stereo not shown): the “hERG current change (%, negative = inhibition) at 10uM” value worked out at 0.687%. For `CCCCNc1nc(=S)n(-c2ccccc2)c(C)c1C(C)=O` the value was 5.44%.

With `COCCNC(=O)c1cc(-c2ccncc2)nc2ccc(S(=O)(=O)N3CCOCC3)cc12`, the “hERG current change (%, negative = inhibition) at 10uM” value was -32.3%. For `COC(=O)C(Cc1ccccc1)N1CCS(=O)(=O)CC1` (stereo not shown) the value was 28.6%; for `CCn1c(/C=C/c2ccc(O)c(O)c2)nc2ccccc2c1=O`, 13.6%; for `N#Cc1ccc(S(=O)(=O)N2CCC(N3CCCCC3)CC2)cc1`, -58.3%.
